Experimental data: PubChem BioAssay AID1768 (National Center for Advancing Translational Sciences (NCATS), 2009)
In all, about 270,000 compounds went through this assay and about 620 (0.23%) were called active. The shares of active, inactive and inconclusive entries below differ from those in the screen. Calls follow the shape of the dose curve; as a rule, active = well fitted inhibition curve with a large enough effect in the polarisation, with a control signal flat (not every such curve was filed as active); inconclusive = small, poorly fitted or top-dose-only effect, or effect the other way, or a change in a side signal; inactive = no such curve, though single readings can be large or run the other way; the % refers to the polarisation. Potencies beside an inconclusive call are fits to weak or partial responses and may not hold up. “Side channel” marks fits to a control or component signal instead of the main read-out.

Each compound was assayed against Menin (Homo sapiens) (UniProt O00255) (assay: qHTS Assay for Inhibitors Targeting the Menin-MLL Interaction in MLL Related Leukemias: Competition With Texas Red Labeled MLL-derived Mutant Peptide). Conditions: fluorescence polarization; FP activity change, negative = inhibition: at 61.6 µM (top of the series).
For FP activity change, negative = inhibition in this document: % of control where 0% means no effect.
Potency is read from the fitted curve at half-maximal effect; tags tell the direction and shape of the fitted curve or compound fluorescence and quenching.

UniProt O00255, sequence (O00255 whole entry, looked up): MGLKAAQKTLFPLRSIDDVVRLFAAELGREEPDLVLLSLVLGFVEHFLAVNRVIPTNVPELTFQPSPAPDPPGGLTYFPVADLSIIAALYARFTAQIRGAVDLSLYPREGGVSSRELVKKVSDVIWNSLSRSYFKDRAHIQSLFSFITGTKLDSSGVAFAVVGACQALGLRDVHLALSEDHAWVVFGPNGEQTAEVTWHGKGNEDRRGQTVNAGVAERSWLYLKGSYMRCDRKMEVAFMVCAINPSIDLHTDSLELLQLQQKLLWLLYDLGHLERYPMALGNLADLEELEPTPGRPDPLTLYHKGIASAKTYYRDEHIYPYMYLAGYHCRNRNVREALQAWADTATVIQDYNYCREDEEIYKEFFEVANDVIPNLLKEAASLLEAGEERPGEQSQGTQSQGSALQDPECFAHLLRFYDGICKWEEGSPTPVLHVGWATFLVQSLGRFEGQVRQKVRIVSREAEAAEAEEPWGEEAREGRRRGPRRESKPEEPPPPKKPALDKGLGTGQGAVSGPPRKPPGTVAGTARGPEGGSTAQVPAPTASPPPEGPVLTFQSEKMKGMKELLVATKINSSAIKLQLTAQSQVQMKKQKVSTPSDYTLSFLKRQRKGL

Row | SMILES | Potency | FP activity change, negative = inhibition
1 | CC1(C)C2([N+](=O)[O-])CN3CC1([N+](=O)[O-])CN(C2)C3c1ccccc1 (stereo not drawn) | inconclusive: 7.08 µM [inhibitor, partial curve] | –
2 | Cc1ccc(S(=O)(=O)Nc2cccc3cccnc23)c([N+](=O)[O-])c1 | inconclusive: 17.8 µM [quencher, side channel, partial curve] | –
3 | CCOc1ccc(Nc2oc(-c3cccs3)nc2C#N)cc1 | inconclusive: 31.6 µM [quencher, side channel, single point] | –
4 | Cc1ccc(S(=O)(=O)N(CC(=O)NCc2ccccn2)c2ccc(Cl)cc2)cc1 | inconclusive: 1 µM [inhibitor, full curve, poor fit] | –
5 | COc1ccc(/C(O)=C2/C(=O)C(=O)N(c3ccccn3)C2c2ccc(C(C)C)cc2)cc1 (stereo not drawn) | inconclusive: 10 µM [quencher, side channel, partial curve] | –
6 | COc1cc(C(=O)N/N=C/c2ccc(OC(=O)c3ccccc3Cl)c(OC)c2)ccc1O | inconclusive: 14.1 µM [quencher, side channel, partial curve] | –
7 | Cc1sc(NC(=O)CN2CCCC2)nc1-c1ccc2c(c1)CCN2C(=O)c1cccc(F)c1 | inconclusive: 0.794 µM [fluorescent, side channel, partial curve] | –
8 | Cc1ccc(OCC(=O)Nc2ccc(NC(=O)c3ccccc3)cc2)cc1C | inconclusive: 15.8 µM [fluorescent, side channel, partial curve] | –
9 | CC(=O)C1=C(C)NC(SCC(=O)c2ccc(C)cc2)=C(C#N)C1c1ccco1 (stereo not drawn) | inconclusive: 12.6 µM [quencher, side channel, partial curve] | –
10 | Cc1noc(C)c1CSc1nc2sc(C)c(C)c2c(=O)n1C1CCCC1 | inconclusive: 10 µM [inhibitor, partial curve] | –
11 | CC(C)(C)NC(=O)COC(=O)CCC(=O)c1ccc(Cl)cc1 | inconclusive: 0.631 µM [inhibitor, full curve, poor fit] | –
12 | CN(NC(=O)c1ccco1)c1nc2ccccc2nc1C(F)(F)F | inconclusive: 39.8 µM [fluorescent, side channel, single point] | –
13 | O=[N+]([O-])c1ccc2nc(/C=C/c3ccc(Cl)cc3)[nH]c2c1 | inconclusive: 15.8 µM [quencher, side channel, partial curve] | –
14 | O=C(COc1ccc2ccccc2c1)NNC(=O)c1ccc([N+](=O)[O-])cc1 | inconclusive: 11.2 µM [quencher, side channel, partial curve] | –
15 | CCC1CC=CC2C1C(=O)N(Cc1ccccc1)C2c1ccoc1 (stereo not drawn) | inconclusive: 15.8 µM [fluorescent, side channel, partial curve] | –
16 | COc1ccc(S(=O)(=O)c2c(O)cc(C)c(NS(=O)(=O)c3ccccc3)c2C)cc1 | inconclusive: 22.4 µM [quencher, side channel, partial curve] | –
17 | CCCCOc1cccc(C(=O)Nc2ccc(S(=O)(=O)Nc3nnc(CC)s3)cc2)c1 | inconclusive: 8.91 µM [quencher, side channel, full curve, poor fit] | –
18 | S=c1[nH]nc(-c2ccccc2)n1/N=C/c1ccc(Cl)cc1 | inconclusive: 39.8 µM [quencher, side channel, single point] | –
19 | CCOc1ccc(Br)cc1S(=O)(=O)Nc1ccc(NC(=O)c2ccccc2F)cc1 | inconclusive: 20 µM [quencher, side channel, single point] | –
20 | CCOC(=O)C1=C(C)OC(N)=C(C#N)C1c1cc2c(cc1[N+](=O)[O-])OCO2 (stereo not drawn) | inconclusive: 14.1 µM [quencher, side channel, partial curve] | –

Row | SMILES | Potency | FP activity change, negative = inhibition
21 | O=C(Nc1cc(Cl)ccc1O)C1CC(c2ccccc2O)=NO1 (stereo not drawn) | inconclusive: 28.2 µM [quencher, side channel, single point] | –
22 | COc1cccc(C2=Nn3c(nnc3-c3cc(OC)ccc3OC)SC2)c1 | inconclusive: 10 µM [inhibitor, partial curve, poor fit] | –
23 | CCCCn1c(=O)[nH]c(=O)c2c1nc(-c1ccc(OC)c(Br)c1)n2CC(C)C | inconclusive: 1.41 µM [fluorescent, side channel, full curve, poor fit] | –
24 | COc1ccccc1-c1cc(C(=O)NCc2cccs2)no1 | inconclusive: 39.8 µM [inhibitor, single point] | –
25 | CC(C)c1ccc2c(c1)CCC1C(C)(CN)CCCC21C (stereo not drawn) | active: 20 µM | –
26 | CCCN(CCC)CCCNC(=O)CS(=O)Cc1nc(-c2ccc(OC)c(OC)c2)oc1C (stereo not drawn) | inconclusive: 35.5 µM [inhibitor, single point] | –
27 | COc1cc(CCC(=O)N2CCN(c3cccc(C)c3C)CC2)cc(OC)c1OC | inconclusive: 10 µM [inhibitor, partial curve, poor fit] | –
28 | CC(=O)O[C@@H]1C(CO[Si](C)(C)C(C)(C)C)=C(Br)C(=O)[C@@H]2O[C@]12C | – | inactive: -4.18%
29 | CC(C)CCN1C(=O)c2ccc(C(=O)OCn3nnc4ccccc4c3=O)cc2C1=O | inconclusive: 31.6 µM [fluorescent, side channel, single point] | –
30 | CCCn1c(CNC(=O)c2ccccc2)nc2ccccc21 | inconclusive: 7.94 µM [inhibitor, partial curve] | –
31 | O=C(C1=NN(c2ccccc2)C2C(=O)N(c3cccc(Cl)c3)C(=O)C12)c1ccccc1 (stereo not drawn) | inconclusive: 39.8 µM [inhibitor, single point] | –
32 | Cc1ccc(N2CCCn3c2cc(C)c(C#N)c3=O)cc1Cl | inconclusive: 35.5 µM [inhibitor, single point] | –
33 | COc1cccc(-c2nn3c(-c4ccccn4)nnc3s2)c1 | inconclusive: 3.55 µM [inhibitor, partial curve] | –
34 | COc1ccc(-c2ccc(N(C)C)cc2)cc1C1C2C=CCC(C)C2C(=O)N1Cc1ccccc1 (stereo not drawn) | – | inactive: -1.4%
35 | CC(C)(Oc1ccc(Cl)cc1)C(=O)N/N=C/c1cn[nH]c1-c1ccccc1 | inconclusive: 1.12 µM [fluorescent, side channel, full curve, poor fit] | –
36 | COc1ccc(Cl)cc1C(=O)NNC(=S)NC(=O)/C=C/c1ccco1 | inconclusive: 12.6 µM [quencher, side channel, partial curve] | –
37 | CCOC(=O)NCC(C#CCN(CC)CC)N(CC)CC (stereo not drawn) | inconclusive: 3.16 µM [inhibitor, partial curve] | –
38 | COc1ccc(-n2c(-c3cccc(C)c3[N+](=O)[O-])n[nH]c2=S)cc1 | – | inactive: -17.2%
39 | C=CCNC(=O)c1ccc(-c2nc(-c3ccc(Cl)cc3Cl)cs2)cc1 | inconclusive: 0.891 µM [inhibitor, full curve] | –
40 | CCc1cccc(N(C)C(N)=Nc2cccc3ccccc23)c1 | inconclusive: 28.2 µM [fluorescent, side channel, single point] | –

Row | SMILES | Potency | FP activity change, negative = inhibition
41 | Clc1ccccc1/C=C/c1ccnc2ccccc12 | inconclusive: 31.6 µM [inhibitor, partial curve] | –
42 | O=C(Cc1ccc(Cl)cc1)Nc1ccccc1Sc1ccccc1 | inconclusive: 39.8 µM [fluorescent, side channel, single point] | –
43 | Cc1c(CNCCc2ccccc2Cl)c(C(=O)O)c(C)n1-c1ccccc1 | inconclusive: 22.4 µM [inhibitor, partial curve] | –
44 | COCC(C)n1c(SCc2nc3ccccc3c(=O)[nH]2)nc2ccccc2c1=O (stereo not drawn) | – | inactive: -0.134%
45 | O=C(CCCn1c(SCC(=O)c2ccc(O)c(O)c2)nc2ccccc2c1=O)NCC1CCCO1 (stereo not drawn) | inconclusive: 31.6 µM [quencher, side channel, single point] | –
46 | Cc1ccc(-c2n[nH]c(=S)n2Cc2ccccc2)cc1 | – | inactive: -0.005%
47 | CC1=NN(C(N)=S)C(=O)C1N=Nc1ccccc1O (stereo not drawn) | – | inactive: 5.41%
48 | O=C1OC(N2C(=O)CC[C@H]2C(=O)Nc2ccc3c(c2)OCO3)c2ccccc21 (stereo partly drawn) | – | inactive: -1.53%
49 | O=C(N/N=C/c1ccc2c(c1)OCO2)c1ccc2c(c1)OCCO2 | – | inactive: 11.8%
50 | CC(=O)C(=Nc1ccc(Cl)cc1Cl)NNc1cccc(Cl)c1 | inconclusive: 3.16 µM [quencher, side channel, partial curve] | –
51 | CCN(CC)S(=O)(=O)c1cccc(C(=O)N/N=C(\C)c2ccc(O)cc2O)c1 | – | inactive: 5.75%
52 | O=C(NCc1ccccc1)/C(=C/c1ccc([N+](=O)[O-])cc1)NC(=O)c1ccco1 | inconclusive: 28.2 µM [quencher, side channel, single point] | –
53 | Cc1cc(C)c(NC(=O)Cn2nnc(C(=O)NCCc3ccccc3)c2N)c(C)c1 | inconclusive: 25.1 µM [fluorescent, side channel, single point] | –
54 | CCCC[C@H](CC)CN=C(N)NC(N)=NCCCCCCN=C(N)NC(N)=NC[C@@H](CC)CCCC | inconclusive: 3.55 µM [fluorescent, side channel, full curve, poor fit] | –
55 | O=C(NC(=S)Nc1cccc2cccnc12)c1ccccc1 | inconclusive: 17.8 µM [quencher, side channel, partial curve] | –
56 | O=C(/C=C/c1ccc(N2CCCCC2)c([N+](=O)[O-])c1)c1ccc(O)cc1 | inconclusive: 28.2 µM [quencher, side channel, partial curve] | –
57 | COc1ccc(NS(=O)(=O)c2ccc(I)cc2)cc1N1CCN(C)CC1 | inconclusive: 3.98 µM [inhibitor, full curve, poor fit] | –
58 | COc1ccc(-n2c(=O)c(-c3cccs3)nc3cnc(Nc4ccccc4)nc32)cc1 | – | inactive: 21.9%
